# Measurements reported in the supplement of paper PMC8728848.
# The list shows a part of the results.
# B1: FGFR2-Fc (protein)
# chain: MVNVTDAISSGDDEDDTDGAEDFVSENSNNKRAPYWTNTEKMEKRLHAVPAANTVKFRCPAGGNPMPTMRWLKNGKEFKQEHRIGGYKVRNQHWSLIMESVVPSDKGNYTCVVENEYGSINHTYHLDVVERSPHRPILQAGLPANASTVVGGDVEFVCKVYSDAQPHIQWIKHVEKNGSKYGPDGLPYLKVLKHSGINSSNAEVLALFNVTEADAGEYICKVSNYIGQANQSAWLTVLPKQQAPGREKEITASPDYLETRPLEQKLISEEDLAANDILDYKDDDDKV
# Assays:
# Experiment in all cases: glycan array binding signal (z-score within array); higher = stronger binding
# Settings in all cases: glycan notation: IUPAC condensed, linker removed
# [1] = target: Gal(b1-4)GlcNAc(b1-3)Gal(b1-4)GlcNAc(b1-2)[Gal(b1-4)GlcNAc(b1-3)Gal(b1-4)GlcNAc(b1-6)]Man(a1-6)[Gal(b1-4)GlcNAc(b1-3)Gal(b1-4)GlcNAc(b1-2)Man(a1-3)]Man(b1-4)GlcNAc(b1-4)GlcNAc
# Outline: (§1)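 Glycan array data were curated from 3228 arrays in the Consortium for Functional Glycomics database and kept only where the protein sequence was available. Glycan names were converted to IUPAC-condensed notation, and columns mapping to the same glycan were averaged. The binding signal is a within-array Z-score, averaged across arrays of the same protein sequence at different concentrations or buffers and across linkers. Negative Z-scores can be read as non-binding.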
# [2] = target: Gal(b1-4)GlcNAc(b1-3)Gal(b1-4)GlcNAc(b1-2)[Gal(b1-4)GlcNAc(b1-3)Gal(b1-4)GlcNAc(b1-6)]Man(a1-6)[Gal(b1-4)GlcNAc(b1-3)Gal(b1-4)GlcNAc(b1-2)Man(a1-3)]Man(b1-4)GlcNAc(b1-4)[Fuc(a1-6)]GlcNAc
# Outline: as §1
# [3] = target: Gal(b1-4)GlcNAc(b1-3)Gal(b1-4)GlcNAc(b1-3)Gal(b1-4)GlcNAc
# Outline: as §1
# [4] = target: Gal(b1-4)GlcNAc(b1-3)Gal(b1-4)GlcNAc(b1-3)Gal(b1-4)GlcNAc(b1-2)Man(a1-3)[Gal(b1-4)GlcNAc(b1-3)Gal(b1-4)GlcNAc(b1-3)Gal(b1-4)GlcNAc(b1-2)Man(a1-6)]Man(b1-4)GlcNAc(b1-4)GlcNAc
# Outline: as §1
# [5] = target: Gal(b1-4)GlcNAc(b1-3)Gal(b1-4)GlcNAc(b1-3)Gal(b1-4)GlcNAc(b1-2)Man(a1-3)[Gal(b1-4)GlcNAc(b1-3)Gal(b1-4)GlcNAc(b1-3)Gal(b1-4)GlcNAc(b1-2)Man(a1-6)]Man(b1-4)GlcNAc(b1-4)[Fuc(a1-6)]GlcNAc
# Outline: as §1
# [6] = target: Gal(b1-4)GlcNAc(b1-3)Gal(b1-4)GlcNAc(b1-3)Gal(b1-4)GlcNAc(b1-2)[Gal(b1-4)GlcNAc(b1-3)Gal(b1-4)GlcNAc(b1-3)Gal(b1-4)GlcNAc(b1-6)]Man(a1-6)[Gal(b1-4)GlcNAc(b1-3)Gal(b1-4)GlcNAc(b1-3)Gal(b1-4)GlcNAc(b1-2)Man(a1-3)]Man(b1-4)GlcNAc(b1-4)[Fuc(a1-6)]GlcNAc
# Outline: as §1
# [7] = target: Gal(b1-4)GlcNAc(b1-3)Gal(b1-4)GlcNAc(b1-3)Gal(b1-4)GlcNAc(b1-3)Gal(b1-4)GlcNAc(b1-2)Man(a1-3)[Gal(b1-4)GlcNAc(b1-3)Gal(b1-4)GlcNAc(b1-3)Gal(b1-4)GlcNAc(b1-3)Gal(b1-4)GlcNAc(b1-2)Man(a1-6)]Man(b1-4)GlcNAc(b1-4)GlcNAc
# Outline: as §1
# [8] = target: Gal(b1-4)GlcNAc(b1-3)Gal(b1-4)GlcNAc(b1-3)Gal(b1-4)GlcNAc(b1-3)Gal(b1-4)GlcNAc(b1-2)Man(a1-3)[Gal(b1-4)GlcNAc(b1-3)Gal(b1-4)GlcNAc(b1-3)Gal(b1-4)GlcNAc(b1-3)Gal(b1-4)GlcNAc(b1-2)Man(a1-6)]Man(b1-4)GlcNAc(b1-4)[Fuc(a1-6)]GlcNAc
# Outline: as §1
# [9] = target: Gal(b1-4)GlcNAc(b1-3)Gal(b1-4)GlcNAc(b1-3)Gal(b1-4)GlcNAc(b1-3)Gal(b1-4)GlcNAc(b1-2)[Gal(b1-4)GlcNAc(b1-3)Gal(b1-4)GlcNAc(b1-3)Gal(b1-4)GlcNAc(b1-3)Gal(b1-4)GlcNAc(b1-6)]Man(a1-6)[Gal(b1-4)GlcNAc(b1-3)Gal(b1-4)GlcNAc(b1-3)Gal(b1-4)GlcNAc(b1-3)Gal(b1-4)GlcNAc(b1-2)Man(a1-3)]Man(b1-4)GlcNAc(b1-4)[Fuc(a1-6)]GlcNAc
# Outline: as §1
# [10] = target: Gal(b1-4)GlcNAc(b1-3)Gal(b1-4)GlcNAc(b1-3)Gal(b1-4)GlcNAc(b1-3)Gal(b1-4)GlcNAc(b1-3)Gal(b1-4)GlcNAc(b1-2)Man(a1-3)[Gal(b1-4)GlcNAc(b1-3)Gal(b1-4)GlcNAc(b1-3)Gal(b1-4)GlcNAc(b1-3)Gal(b1-4)GlcNAc(b1-3)Gal(b1-4)GlcNAc(b1-2)Man(a1-6)]Man(b1-4)GlcNAc(b1-4)GlcNAc
# Outline: as §1
# [11] = target: Gal(b1-4)GlcNAc(b1-3)Gal(b1-4)GlcNAc(b1-3)Gal(b1-4)GlcNAc(b1-3)Gal(b1-4)GlcNAc(b1-3)Gal(b1-4)GlcNAc(b1-2)Man(a1-3)[Gal(b1-4)GlcNAc(b1-3)Gal(b1-4)GlcNAc(b1-3)Gal(b1-4)GlcNAc(b1-3)Gal(b1-4)GlcNAc(b1-3)Gal(b1-4)GlcNAc(b1-2)Man(a1-6)]Man(b1-4)GlcNAc(b1-4)[Fuc(a1-6)]GlcNAc
# Outline: as §1
# [12] = target: Gal(b1-4)GlcNAc(b1-3)Gal(b1-4)GlcNAc(b1-3)Gal(b1-4)GlcNAc(b1-3)Gal(b1-4)GlcNAc(b1-3)Gal(b1-4)GlcNAc(b1-2)[Gal(b1-4)GlcNAc(b1-3)Gal(b1-4)GlcNAc(b1-3)Gal(b1-4)GlcNAc(b1-3)Gal(b1-4)GlcNAc(b1-3)Gal(b1-4)GlcNAc(b1-6)]Man(a1-6)[Gal(b1-4)GlcNAc(b1-3)Gal(b1-4)GlcNAc(b1-3)Gal(b1-4)GlcNAc(b1-3)Gal(b1-4)GlcNAc(b1-3)Gal(b1-4)GlcNAc(b1-2)Man(a1-3)]Man(b1-4)GlcNAc(b1-4)[Fuc(a1-6)]GlcNAc
# Outline: as §1
# [13] = target: Gal(b1-4)GlcNAc(b1-3)Gal(b1-4)GlcNAc(b1-3)Gal(b1-4)GlcNAc(b1-3)Gal(b1-4)GlcNAc(b1-3)Gal(b1-4)GlcNAc(b1-3)Gal(b1-4)GlcNAc(b1-2)Man(a1-3)[Gal(b1-4)GlcNAc(b1-3)Gal(b1-4)GlcNAc(b1-3)Gal(b1-4)GlcNAc(b1-3)Gal(b1-4)GlcNAc(b1-3)Gal(b1-4)GlcNAc(b1-3)Gal(b1-4)GlcNAc(b1-2)Man(a1-6)]Man(b1-4)GlcNAc(b1-4)GlcNAc
# Outline: as §1
# [14] = target: Gal(b1-4)GlcNAc(b1-3)Gal(b1-4)GlcNAc(b1-3)GalNAc
# Outline: as §1
# [15] = target: Gal(b1-4)GlcNAc(b1-3)Gal(b1-4)GlcNAc(b1-3)[Gal(b1-4)GlcNAc(b1-3)Gal(b1-4)GlcNAc(b1-6)]GalNAc
# Outline: as §1
# [16] = target: Gal(b1-4)GlcNAc(b1-3)Gal(b1-4)GlcNAc(b1-6)[Gal(b1-3)]GalNAc
# Outline: as §1
# [17] = target: Gal(b1-4)GlcNAc(b1-3)Gal(b1-4)[Fuc(a1-3)]GlcNAc(b1-3)Gal(b1-4)[Fuc(a1-3)]GlcNAc
# Outline: as §1
# [18] = target: Gal(b1-4)GlcNAc(b1-3)GalNAc
# Outline: as §1
# [19] = target: Gal(b1-4)GlcNAc(b1-3)[Fuc(a1-3)GlcNAc(b1-6)]Gal(b1-4)Glc
# Outline: as §1
# [20] = target: Gal(b1-4)GlcNAc(b1-3)[Gal(b1-4)GlcNAc(b1-6)]Gal(b1-4)GlcNAc
# Outline: as §1
# [21] = target: Gal(b1-4)GlcNAc(b1-3)[GlcNAc(b1-6)]Gal(b1-4)GlcNAc
# Outline: as §1
# [22] = target: Gal(b1-4)GlcNAc(b1-6)Gal(b1-4)GlcNAc
# Outline: as §1
# [23] = target: Gal(b1-4)GlcNAc(b1-6)GalNAc
# Outline: as §1
# [24] = target: Gal(b1-4)GlcNAc(b1-6)[Gal(b1-3)]GalNAc
# Outline: as §1
# [25] = target: Gal(b1-4)GlcNAc(b1-6)[Gal(b1-4)GlcNAc(b1-3)]GalNAc
# Outline: as §1
# [26] = target: Gal(b1-4)GlcNAc6P
# Outline: as §1
# [27] = target: Gal(b1-6)Gal
# Outline: as §1
# [28] = target: Gal3S(b1-3)GalNAc
# Outline: as §1
# [29] = target: Gal3S(b1-3)GlcNAc
# Outline: as §1
# [30] = target: Gal3S(b1-3)[Fuc(a1-4)]GlcNAc
# Outline: as §1
# [31] = target: Gal3S(b1-4)Glc
# Outline: as §1
# [32] = target: Gal3S(b1-4)Glc6S
# Outline: as §1
# [33] = target: Gal3S(b1-4)GlcNAc
# Outline: as §1
# [34] = target: Gal3S(b1-4)[Fuc(a1-3)]Glc6S
# Outline: as §1
# [35] = target: Gal3S(b1-4)[Fuc(a1-3)]GlcNAc
# Outline: as §1
# [36] = target: Gal3S(b1-4)[Fuc(a1-3)]GlcNAc6S
# Outline: as §1
# [37] = target: Gal3S4S(b1-4)GlcNAc
# Outline: as §1
binder,measurement,setting,value
B1,glycan array binding signal (z-score),[1],-0.015
same,glycan array binding signal (z-score),[2],0.686
same,glycan array binding signal (z-score),[3],-0.19
same,glycan array binding signal (z-score),[4],0.197
same,glycan array binding signal (z-score),[5],-0.115
same,glycan array binding signal (z-score),[6],0.515
same,glycan array binding signal (z-score),[7],1.4
same,glycan array binding signal (z-score),[8],0.178
same,glycan array binding signal (z-score),[9],-0.07
same,glycan array binding signal (z-score),[10],-0.013
same,glycan array binding signal (z-score),[11],-0.034
same,glycan array binding signal (z-score),[12],-0.087
same,glycan array binding signal (z-score),[13],-0.198
same,glycan array binding signal (z-score),[14],0.243
same,glycan array binding signal (z-score),[15],0.9
same,glycan array binding signal (z-score),[16],0.362
same,glycan array binding signal (z-score),[17],0.128
same,glycan array binding signal (z-score),[18],0.027
same,glycan array binding signal (z-score),[19],-0.139
same,glycan array binding signal (z-score),[20],-0.674
same,glycan array binding signal (z-score),[21],-0.277
same,glycan array binding signal (z-score),[22],0.09
same,glycan array binding signal (z-score),[23],0.447
same,glycan array binding signal (z-score),[24],0.229
same,glycan array binding signal (z-score),[25],-0.073
same,glycan array binding signal (z-score),[26],0.573
same,glycan array binding signal (z-score),[27],-0.771
same,glycan array binding signal (z-score),[28],0.111
same,glycan array binding signal (z-score),[29],0.343
same,glycan array binding signal (z-score),[30],-0.152
same,glycan array binding signal (z-score),[31],0.236
same,glycan array binding signal (z-score),[32],0.012
same,glycan array binding signal (z-score),[33],-0.089
same,glycan array binding signal (z-score),[34],1.35
same,glycan array binding signal (z-score),[35],-0.04
same,glycan array binding signal (z-score),[36],-0.045
same,glycan array binding signal (z-score),[37],-0.708
